Target: BRD4BD2 (Homo sapiens, UniProt O60885)
Assay: BRD4BD2-eGFP and mCherry flow reporter degradation assay, wild type K562 cells
Settings: 16 h incubation

Compound: Cc1sc2c(c1C)C(c1ccc(C#CCN)cc1)=N[C@@H](CC(=O)OC(C)(C)C)c1nnc(C)n1-2 [GNE011, tert-butyl (S)-2-(4-(4-(3-aminoprop-1-yn-1-yl)phenyl)-2,3,9-trimethyl-6H-thieno[3,2-f][1,2,4]triazolo[4,3-a][1,4]diazepin-6-yl)acetate, reference compound]
- bromodomain selectivity of degradation (BRD4BD2 vs BRD4BD1 reporter): selective degradation of the second bromodomain (BRD4BD2) over the first (BRD4BD1)
